Data on 52 molecules can be found in PubChem BioAssay (NCI).

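A five-concentration, 48-hour dose response in 96-well plates underlies each endpoint, interpolated linearly between surrounding concentrations. At the GI50, growth is halved. TGI denotes the concentration required for complete inhibition of growth.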 Peptide text beside a SMILES is read from it.

The subject of this assay is NCI-H322M lung. Kind of assay: NCI anticancer screen, dose series, 48 h.
For `CC(=O)NC(CCCNC(=O)OCc1ccccc1)C(=O)O` (stereo not given), the TGI is > 100 µM. On the same count and under the same terms, the value for `O=C(/C=C/c1ccccc1)OCC1=C[C@@H](O)[C@@H]2C=CO[C@@H](OC3OC(CO)C(O)C(O)C3O)[C@H]12` (stereo not given in full) was > 100 µM. Turning to `COc1ccc2nc3cc(Cl)ccc3c(Nc3cc(C(C)C)c(O)cc3C)c2c1`, the GI50 was 2.01 µM and the TGI was 5.46 µM. In the case of `CCOC(=O)C(NC(=O)c1ccccc1)(Nc1ccc(S(=O)(=O)Nc2cc(C)nc(C)n2)cc1)C(F)(F)F` (stereo not given), the TGI was > 100 µM. As to `O=C(CSc1ncc(-c2ccccc2)n1-c1ccccc1)Nc1ccc(-c2nc3ccccc3s2)cc1`, the GI50 was 6.26 µM and the TGI was > 100 µM.

With `Fc1ccc(-c2c(-c3ccncc3)[nH]c3nccnc23)cc1`, the GI50 is 12.7 µM and the TGI is > 25 µM. For the molecule `CC[C@@]1(O)C(=O)NCc2c1cc1n(c2=O)Cc2cc3c(NC(C)=O)cccc3nc2-1`, the GI50 is > 100 µM and the TGI was > 100 µM. Take `COc1c2ccccc2c(O)c2c(=O)ccn(C)c12`: the GI50 was 10.2 µM and the TGI is 47.8 µM. Regarding `CC1C(=O)C(C)C(c2ccco2)N(N=O)C1c1ccco1` (stereo not given), the TGI is > 100 µM.

On to `CO/N=C(\C)c1cccc(Nc2nc3ccccc3c3occc23)c1`, for which the TGI was found to be 27.2 µM. Take `C[n+]1c2ccccc2c(CNC(CS)C(=O)O)c2ccccc21` (stereo not given): the TGI was > 100 µM. On the same count and under the same terms, to `COc1cccc(/C=C\c2ccnc3ccccc23)c1` belongs > 10 µM; to `CC1CC(c2ccc(Cl)c(Cl)c2)=Nc2ccccc2S1` (stereo not given), > 100 µM; to `COc1cc2c(cc1O)C1CC(CC3CCCCN31)OC(=O)/C=C\c1ccc(O)c-2c1` (stereo not given), 68.1 µM. Still for that read-out and setting: the value for `CCSc1nnc(-c2ccccc2)nc1Cc1ccc(OC)cc1` was > 100 µM; that for `O=C(NCCCNCCCCNCCCNC(=O)c1cc(-c2ccccc2)nc2ccccc12)c1cc(-c2ccccc2)nc2ccccc12` was 16.3 µM; that for `CC1OC(OCC2OC(Oc3ccc(C4CC(=O)c5c(O)cc(O)cc5O4)cc3O)C(O)C(O)C2O)C(O)C(O)C1O` (stereo not given) was > 100 µM. Still for that read-out and setting: to `COC1=CC(=O)C2C(C1=O)C(c1ccc(Cl)cc1)[C@@H]2C` (stereo not given in full) belongs > 100 µM; to `COc1ccc(C(=C2C(=O)N(c3ccccc3)C(=O)C2=C(C)C)c2ccc(OC)cc2)cc1`, > 61.3 µM. Take `CC(C)[C@@H]1OC(=O)[C@@H](C)NC(=O)[C@@H]2CCCN2C1=O` (HELM PEPTIDE1{[CC(C)[C@H](O[*:1])C(=O)[*:2]].P.[dA]}$PEPTIDE1,PEPTIDE1,1:R1-3:R2$$$V2.0): the TGI was > 100 µM. On the same count and under the same terms, the value for `N#CC1C(=O)NC(=O)C1=O` (stereo not given) was > 100 µM; that for `COCOc1c(C(OCOC)c2cnc(Sc3ccccc3)n2C)ccc(OC)c1OC` (stereo not given) was > 100 µM.

Consider `COC(=O)N/N=C(\c1ccccc1)c1ccc(OC)cc1`, for which the TGI was > 100 µM.

With `c1ccc2c(c1)N=C(c1ccc3ccccc3c1)CC(c1cccc3ccccc13)S2` (stereo not given), the TGI is > 100 µM. Still for that read-out and setting: the value for `COc1cc(/C=C/c2ccccn2)cc(OC)c1OC` was > 10 µM. The same measure, in the same setting: the value for `c1c2c(cc3c1OCO3)-c1cc3ccc4c(c3c[n+]1CC2)OCO4` was > 12.5 µM; that for `Cc1cccc(/C=N/NC(=S)N(C)CCc2ccccn2)n1` was > 100 µM. On the same count and under the same terms, the value for `CCc1ccc(/C=C/C(=O)C2CN(CC)CCC2(O)/C=C/c2ccc(CC)cc2)cc1` (stereo not given) was 24.7 µM. In the case of `C#CC(O)/C=C/C(O)CCCC(O)CC#CC(O)C#CC(O)CCCC(O)/C=C/CCCCCC(=O)CCCCCCCCCCCCCC(O)C(O)C#CC(=O)O` (stereo not given), the TGI was > 50 µM.

`Oc1ccc(-c2nc3cc(F)ccc3s2)cc1` had a TGI of 67.7 µM. Same read-out and setting: the value for `N#Cc1cn(-c2c3ccccc3nc3ccccc23)c(=O)[nH]c1=O` was 28.8 µM; that for `Cc1[nH]n(-c2ccccc2)c(=O)c1C(N(CCc1ccccc1)C1=NCC(C)S1)(C(F)(F)F)C(F)(F)F` (stereo not given) was 79.9 µM.

For `COc1cc(-c2nn(-c3cccc(NC(=O)CCN4CCN(C)CC4)c3)cc2-c2ccncc2)ccc1Cl`, the GI50 was 2.87 µM and the TGI is 11.6 µM. As to `O=C1NC(=N[C@H](CO)c2ccccc2)S/C1=C\c1ccc2ncccc2c1`, the GI50 was 2.14 µM and the TGI came to 13 µM. The like results for `CCCc1n(Cc2ccc3ccccc3n2)cc[n+]1Cc1ccc2ccccc2n1` were, in that order, 4.38 µM and 35.7 µM.

In the case of `O=C1OC2(OC2c2ccc(Cl)cc2)c2ccccc21` (stereo not given), the TGI is > 100 µM. As for `Fc1ccc(C2C3CCOc4c(ccc5ccccc45)C3=NN2c2ccccc2)cc1` (stereo not given), the GI50 was > 100 µM and the TGI was > 100 µM. Regarding `Cc1cc2c(cc1Cl)SC(C(=O)c1ccc(Cl)c(Cl)c1)NS2(=O)=O` (stereo not given), the GI50 is 50.9 µM and the TGI is > 100 µM. `O=C(O)c1nc2ccccc2nc1NCc1ccc(F)cc1`: the TGI is > 100 µM. Still for that read-out and setting: to `CCCCCCC1CC(=O)C1(Cl)Cl` (stereo not given) belongs > 100 µM; to `COC(=O)c1ccccc1C1=C([N+](=O)[O-])C(c2cccc(Br)c2)C(C#N)=C(N)O1` (stereo not given), > 100 µM. `C=C1CC(C)(COc2ccc3c(C)cc(=O)oc3c2)OC1=O` (stereo not given): the TGI was 21.8 µM. Still for that read-out and setting: to `O=c1oc2c/c(=C\c3ccccn3)c(=O)c3cccc1c3-2` belongs > 100 µM.

`Cc1cc2c(cc1Cl)N1C(=O)NS(=O)(=O)N=C1NS2(=O)=O`: the GI50 is > 100 µM and the TGI is > 100 µM. On to `O=c1c2cc(S(=O)(=O)Nc3ccc(Cl)cc3Cl)ccc2ncn1NS(=O)(=O)c1cccc2ccccc12`, for which the TGI was > 100 µM. With `COc1ccc(/C=C2\N=C(c3ccccc3)OC2=O)cc1OC(C)=O`, the TGI is > 100 µM. Still for that read-out and setting: to `Nc1nc(OCC2CCCCC2)c2[nH]cnc2n1` belongs 66 µM.

As for `C[C@H](c1ccccc1)N(CCC(=O)O)C(=O)CCN(C(=O)CCN(C(=O)CCN[C@H](C)c1ccccc1)[C@H](C)c1ccccc1)[C@H](C)c1ccccc1`, the GI50 is > 100 µM and the TGI was > 100 µM. For the molecule `CC12CC(=O)C3C(CCC4=CC(=O)CCC43C)C1CC=C2CC(=O)O` (stereo not given), the TGI is > 100 µM. The same measure, in the same setting: to `COc1ccc(/C=C2\CCC(Cc3ccccc3)(CN(C)C)C2=O)cc1` (stereo not given) belongs > 100 µM.

Turning to `O=S(=O)(Oc1ccc2ccccc2c1-c1c(OS(=O)(=O)C(F)(F)F)ccc2ccccc12)C(F)(F)F`, the TGI is > 100 µM. Regarding `N=C1C(c2nc3ccccc3s2)=C(O)CN1c1cc(Cl)cc(Cl)c1`, the GI50 is > 100 µM and the TGI was > 100 µM.
